Reference: publication PMC5895073, “Cell polarity protein Spa2 coordinates Chs2 incorporation at the division site in budding yeast” (PLoS Genetics, 2018)
Like-named read-outs stand apart in the source and are kept apart here. No constants are given. Whether binding was seen depends on the method and setting. For some of these results: Binding seen in cells or lysates may run through a third protein. Some entries that bind do so weakly or less than the wild type. For some of these results: Tags and fused reporters may be left off the sequences shown.

The chains behind the UniProt entries cited, without tags or fusion partners. Where a name states a change or a piece, a line headed by the entry shows the natural chain unless it says otherwise. Residues count along the entry.
UniProt P23201: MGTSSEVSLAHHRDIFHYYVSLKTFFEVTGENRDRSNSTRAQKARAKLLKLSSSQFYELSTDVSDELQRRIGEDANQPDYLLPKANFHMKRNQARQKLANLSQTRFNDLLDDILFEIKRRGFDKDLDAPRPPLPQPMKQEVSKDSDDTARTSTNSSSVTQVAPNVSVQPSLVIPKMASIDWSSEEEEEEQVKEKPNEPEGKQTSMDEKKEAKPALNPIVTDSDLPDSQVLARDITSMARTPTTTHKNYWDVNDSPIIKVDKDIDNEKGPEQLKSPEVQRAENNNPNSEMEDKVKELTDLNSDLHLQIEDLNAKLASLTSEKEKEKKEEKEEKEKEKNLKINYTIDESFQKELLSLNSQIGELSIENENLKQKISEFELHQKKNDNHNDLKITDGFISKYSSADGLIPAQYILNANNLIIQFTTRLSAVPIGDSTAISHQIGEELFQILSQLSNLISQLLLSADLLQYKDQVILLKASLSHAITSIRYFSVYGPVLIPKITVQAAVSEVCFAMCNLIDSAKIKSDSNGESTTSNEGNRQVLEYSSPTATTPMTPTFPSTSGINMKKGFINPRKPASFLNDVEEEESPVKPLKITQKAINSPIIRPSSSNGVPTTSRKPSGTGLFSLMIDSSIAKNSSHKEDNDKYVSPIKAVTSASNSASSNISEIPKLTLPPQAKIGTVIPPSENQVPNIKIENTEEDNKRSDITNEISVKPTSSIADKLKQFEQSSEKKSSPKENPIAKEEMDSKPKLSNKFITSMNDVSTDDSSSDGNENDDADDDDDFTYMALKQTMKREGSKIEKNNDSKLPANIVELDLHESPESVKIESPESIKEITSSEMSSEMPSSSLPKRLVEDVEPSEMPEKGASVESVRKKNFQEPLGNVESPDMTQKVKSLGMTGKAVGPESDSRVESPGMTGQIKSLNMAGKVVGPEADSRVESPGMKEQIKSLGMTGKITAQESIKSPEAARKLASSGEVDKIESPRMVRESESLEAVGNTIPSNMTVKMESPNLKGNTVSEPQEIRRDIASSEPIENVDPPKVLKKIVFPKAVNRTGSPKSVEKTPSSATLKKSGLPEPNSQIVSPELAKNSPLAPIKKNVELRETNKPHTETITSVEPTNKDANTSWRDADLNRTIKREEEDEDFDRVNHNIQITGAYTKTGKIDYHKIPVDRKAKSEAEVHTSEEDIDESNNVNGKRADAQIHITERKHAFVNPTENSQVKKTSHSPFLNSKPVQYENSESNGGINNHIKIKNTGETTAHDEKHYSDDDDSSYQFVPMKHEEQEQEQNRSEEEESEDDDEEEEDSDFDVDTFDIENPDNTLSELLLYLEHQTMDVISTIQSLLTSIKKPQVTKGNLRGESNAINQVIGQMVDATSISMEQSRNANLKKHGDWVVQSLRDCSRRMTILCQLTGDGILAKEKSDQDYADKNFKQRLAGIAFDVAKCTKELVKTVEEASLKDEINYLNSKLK
Spa2-1-145: residues 1-145 of P23201
UniProt P08964: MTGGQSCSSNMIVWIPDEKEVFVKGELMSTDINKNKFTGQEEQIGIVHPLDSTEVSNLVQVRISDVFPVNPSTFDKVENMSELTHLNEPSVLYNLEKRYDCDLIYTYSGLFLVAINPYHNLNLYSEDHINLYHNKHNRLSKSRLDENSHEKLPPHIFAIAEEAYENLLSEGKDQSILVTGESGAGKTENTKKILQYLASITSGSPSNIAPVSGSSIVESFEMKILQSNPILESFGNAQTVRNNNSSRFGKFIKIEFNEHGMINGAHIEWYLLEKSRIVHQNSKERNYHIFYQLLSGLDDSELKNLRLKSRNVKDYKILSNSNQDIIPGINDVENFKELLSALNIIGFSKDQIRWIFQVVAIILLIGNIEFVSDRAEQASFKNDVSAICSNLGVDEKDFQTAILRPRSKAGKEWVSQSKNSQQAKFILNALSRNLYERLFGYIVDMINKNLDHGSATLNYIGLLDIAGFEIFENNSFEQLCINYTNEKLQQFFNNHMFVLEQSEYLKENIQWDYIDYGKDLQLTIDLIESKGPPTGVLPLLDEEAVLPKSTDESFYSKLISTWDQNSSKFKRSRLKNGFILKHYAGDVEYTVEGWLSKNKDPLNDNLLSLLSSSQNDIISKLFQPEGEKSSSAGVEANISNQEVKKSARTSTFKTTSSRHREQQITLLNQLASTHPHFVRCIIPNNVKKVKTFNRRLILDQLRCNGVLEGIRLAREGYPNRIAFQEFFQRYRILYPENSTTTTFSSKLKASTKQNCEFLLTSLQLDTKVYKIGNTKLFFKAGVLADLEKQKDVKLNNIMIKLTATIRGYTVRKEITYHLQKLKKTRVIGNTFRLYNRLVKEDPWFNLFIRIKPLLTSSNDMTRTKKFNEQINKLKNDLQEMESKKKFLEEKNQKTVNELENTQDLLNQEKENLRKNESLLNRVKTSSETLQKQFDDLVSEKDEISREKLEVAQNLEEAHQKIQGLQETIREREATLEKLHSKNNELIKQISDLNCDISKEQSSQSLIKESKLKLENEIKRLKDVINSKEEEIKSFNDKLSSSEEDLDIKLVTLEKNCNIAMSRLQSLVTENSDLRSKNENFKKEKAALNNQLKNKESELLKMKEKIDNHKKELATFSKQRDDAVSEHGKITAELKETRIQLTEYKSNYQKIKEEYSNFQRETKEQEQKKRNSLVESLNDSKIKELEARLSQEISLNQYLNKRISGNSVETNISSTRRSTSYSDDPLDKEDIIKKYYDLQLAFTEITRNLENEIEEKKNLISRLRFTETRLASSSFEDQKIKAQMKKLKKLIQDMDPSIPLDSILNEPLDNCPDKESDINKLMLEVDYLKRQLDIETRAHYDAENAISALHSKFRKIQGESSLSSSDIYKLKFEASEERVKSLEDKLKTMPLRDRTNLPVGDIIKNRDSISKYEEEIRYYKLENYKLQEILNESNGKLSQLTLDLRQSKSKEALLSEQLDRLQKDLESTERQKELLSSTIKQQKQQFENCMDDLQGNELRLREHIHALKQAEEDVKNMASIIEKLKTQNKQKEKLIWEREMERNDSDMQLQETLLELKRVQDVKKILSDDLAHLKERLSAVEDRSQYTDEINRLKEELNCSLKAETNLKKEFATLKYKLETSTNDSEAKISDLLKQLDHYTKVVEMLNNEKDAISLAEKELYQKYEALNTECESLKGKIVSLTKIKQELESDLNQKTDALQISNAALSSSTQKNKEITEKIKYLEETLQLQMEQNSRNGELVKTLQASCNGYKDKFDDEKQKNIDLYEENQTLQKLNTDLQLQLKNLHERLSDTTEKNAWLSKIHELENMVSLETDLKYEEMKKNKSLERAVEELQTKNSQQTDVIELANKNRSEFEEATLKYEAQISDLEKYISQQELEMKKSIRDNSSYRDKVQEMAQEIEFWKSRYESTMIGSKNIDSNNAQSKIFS
UniProt P19524: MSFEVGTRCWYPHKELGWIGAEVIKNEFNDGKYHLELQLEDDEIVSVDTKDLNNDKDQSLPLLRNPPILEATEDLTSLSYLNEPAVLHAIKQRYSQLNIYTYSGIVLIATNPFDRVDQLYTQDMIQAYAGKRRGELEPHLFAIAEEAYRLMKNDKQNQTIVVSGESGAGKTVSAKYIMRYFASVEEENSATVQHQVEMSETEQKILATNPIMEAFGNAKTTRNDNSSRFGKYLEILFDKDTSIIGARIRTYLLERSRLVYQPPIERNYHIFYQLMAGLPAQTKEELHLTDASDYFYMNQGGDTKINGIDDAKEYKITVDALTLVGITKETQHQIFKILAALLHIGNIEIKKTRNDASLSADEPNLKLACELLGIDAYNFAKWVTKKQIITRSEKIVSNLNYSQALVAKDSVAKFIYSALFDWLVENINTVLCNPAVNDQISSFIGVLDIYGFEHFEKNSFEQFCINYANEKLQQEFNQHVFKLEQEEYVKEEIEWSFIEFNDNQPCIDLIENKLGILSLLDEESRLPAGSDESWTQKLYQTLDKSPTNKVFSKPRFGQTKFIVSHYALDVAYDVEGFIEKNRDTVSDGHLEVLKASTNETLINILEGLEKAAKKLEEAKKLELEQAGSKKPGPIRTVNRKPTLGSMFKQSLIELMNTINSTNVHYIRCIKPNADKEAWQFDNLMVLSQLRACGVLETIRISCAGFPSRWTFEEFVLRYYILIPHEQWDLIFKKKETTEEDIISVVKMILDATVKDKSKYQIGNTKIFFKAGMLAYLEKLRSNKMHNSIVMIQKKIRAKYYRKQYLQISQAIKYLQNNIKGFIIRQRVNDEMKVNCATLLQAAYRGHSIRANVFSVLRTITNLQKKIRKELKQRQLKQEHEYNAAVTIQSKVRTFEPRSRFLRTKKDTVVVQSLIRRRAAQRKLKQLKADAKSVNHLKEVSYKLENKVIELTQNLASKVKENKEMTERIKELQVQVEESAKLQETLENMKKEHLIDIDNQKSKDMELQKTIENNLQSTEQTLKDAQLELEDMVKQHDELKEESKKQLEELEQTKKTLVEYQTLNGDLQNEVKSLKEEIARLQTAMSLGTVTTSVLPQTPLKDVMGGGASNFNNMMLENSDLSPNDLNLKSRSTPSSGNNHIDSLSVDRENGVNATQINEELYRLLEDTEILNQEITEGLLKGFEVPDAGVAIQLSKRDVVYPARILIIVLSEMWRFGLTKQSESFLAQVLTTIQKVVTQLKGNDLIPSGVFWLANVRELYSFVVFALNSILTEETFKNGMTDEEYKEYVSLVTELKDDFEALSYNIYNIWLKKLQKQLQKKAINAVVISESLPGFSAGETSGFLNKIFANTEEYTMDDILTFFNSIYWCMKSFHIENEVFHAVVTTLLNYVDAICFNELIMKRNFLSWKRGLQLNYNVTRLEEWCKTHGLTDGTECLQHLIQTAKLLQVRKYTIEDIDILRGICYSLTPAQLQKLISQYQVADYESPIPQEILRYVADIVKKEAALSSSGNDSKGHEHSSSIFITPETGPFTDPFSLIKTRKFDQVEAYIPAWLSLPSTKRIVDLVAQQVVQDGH

T1: Strep-tag-Chs2-215-629 (S. cerevisiae) (UniProt P14180)
T1 sequence: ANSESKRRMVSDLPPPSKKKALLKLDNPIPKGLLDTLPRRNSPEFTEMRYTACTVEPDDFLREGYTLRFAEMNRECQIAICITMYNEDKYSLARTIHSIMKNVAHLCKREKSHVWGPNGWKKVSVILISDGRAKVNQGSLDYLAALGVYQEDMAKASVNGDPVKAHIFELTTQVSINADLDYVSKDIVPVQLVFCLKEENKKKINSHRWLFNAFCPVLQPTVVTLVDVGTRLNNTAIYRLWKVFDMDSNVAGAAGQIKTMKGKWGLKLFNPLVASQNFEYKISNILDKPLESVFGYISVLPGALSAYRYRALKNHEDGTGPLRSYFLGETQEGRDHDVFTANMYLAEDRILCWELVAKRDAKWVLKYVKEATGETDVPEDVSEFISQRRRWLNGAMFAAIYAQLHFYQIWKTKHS


How the values were obtained:
TAP-Spa2 (S. cerevisiae) [1] = biological target: TAP-Spa2 (S. cerevisiae) (UniProt P23201); assay: condition: only extracts of cells arrested in G1 phase or going through S phase; co-IP; yeast cell extract of cells arrested in G1 phase or released 30 min (S phase); TAP-Spa2 on IgG beads; immunoblot
TAP-Spa2 (S. cerevisiae) [2] = biological target: TAP-Spa2 (S. cerevisiae) (UniProt P23201); assay: co-IP; yeast cell extract of cells in cytokinesis (90 min after G1 release, YPD, 24°C; control cells of Fig 4C: 75 min, YPGal, 37°C); TAP-Spa2 on IgG beads; immunoblot
[3] = biological target: Spa2-1-145 (S. cerevisiae) (UniProt P23201); assay: two-hybrid; vectors pGADT7 and pGBKT7; growth at 30°C on SC medium lacking leucine, tryptophan and histidine (selective), 3-4 days
TAP-Spa2 (S. cerevisiae) [4] = biological target: TAP-Spa2 (S. cerevisiae) (UniProt P23201); assay: co-IP; yeast cell extract of Hof1-depleted cells (hof1-td, YPGal, 37°C, 75 min after G1 release); TAP-Spa2 on IgG beads; immunoblot
TAP-Spa2 (S. cerevisiae) [5] = biological target: TAP-Spa2 (S. cerevisiae) (UniProt P23201); assay: co-IP; extract of asynchronous diploid cells TAP-SPA2/SPA2-5FLAG, YPD, 24°C; TAP-Spa2 on IgG beads; immunoblot
[6] = biological target: T1, Strep-tag-Chs2-215-629 (S. cerevisiae); assay: pull-down; pairs of E. coli cultures mixed, one cell extract; Strep-tagged protein isolated on Strep-Tactin Superflow resin, eluted with 2.5 mM d-desthiobiotin; immunoblot with anti-Strep and anti-His
[7] = biological target: Spa2-1-145 (S. cerevisiae) (UniProt P23201); assay: two-hybrid; vectors pGADT7 and pGBKT7; growth at 30°C on SC medium lacking leucine, tryptophan and histidine (selective), 3-4 days; remark: listed apart in the source

binding (TAP-Spa2 (S. cerevisiae) [1])	binding (TAP-Spa2 (S. cerevisiae) [2])	Molecule	other results
no binding	binds	Myo1-5FLAG (from UniProt P08964 1-1928)	–
–	–	Spa2-421-552 (from UniProt P23201 421-552) (domain or fragment)	binding [3]: binds
–	binds	Myo2 (from UniProt P19524 1-1574)	binding (TAP-Spa2 (S. cerevisiae) [4]): binds
–	–	TAP-Spa2 (from UniProt P23201 1-1466)	binding (TAP-Spa2 (S. cerevisiae) [5]): binds
–	binds	Chs2 (protein, UniProt P14180 1-963) MTRNPFMVEPSNGSPNRRGASNLSKFYANANSNSRWANPSEESLEDSYDQSNVFQGLPASPSRAALRYSPDRRHRTQFYRDSAHNSPVAPNRYAANLQESPKRAGEAVIHLSEGSNLYPRDNADLPVDPYHLSPQQQPSNNLFGSGRLYSQSSKYTMSTTSTTAPSLAEADDEKEKYLTSTTSYDDQSTIFSADTFNETKFELNHPTRQQYVRRANSESKRRMVSDLPPPSKKKALLKLDNPIPKGLLDTLPRRNSPEFTEMRYTACTVEPDDFLREGYTLRFAEMNRECQIAICITMYNEDKYSLARTIHSIMKNVAHLCKREKSHVWGPNGWKKVSVILISDGRAKVNQGSLDYLAALGVYQEDMAKASVNGDPVKAHIFELTTQVSINADLDYVSKDIVPVQLVFCLKEENKKKINSHRWLFNAFCPVLQPTVVTLVDVGTRLNNTAIYRLWKVFDMDSNVAGAAGQIKTMKGKWGLKLFNPLVASQNFEYKISNILDKPLESVFGYISVLPGALSAYRYRALKNHEDGTGPLRSYFLGETQEGRDHDVFTANMYLAEDRILCWELVAKRDAKWVLKYVKEATGETDVPEDVSEFISQRRRWLNGAMFAAIYAQLHFYQIWKTKHSVVRKFFLHVEFLYQFIQMLFSWFSIANFVLTFYYLAGSMNLVIKHGEALFIFFKYLIFCDLASLFIISMGNRPQGAKHLFITSMVILSICATYSLICGFVFAFKSLASGTESHKIFVDIVISLLSTYGLYFFSSLMYLDPWHMFTSSIQYFLTLPAFTCTLQIFAFCNTHDVSWGTKGSTQESKQLSKAIVVQGPDGKQIVETDWPQEVDKKFLEIKSRLKEPEFEESSGNEKQSKNDYYRDIRTRIVMIWMLSNLILIMSIIQVFTPQDTDNGYLIFILWSVAALAAFRVVGSMAFLFMKYLRIIVSYRNKVEGSGSWEVSKLDLPNVFHKKG	binding (TAP-Spa2 (S. cerevisiae) [4]): binds
no binding	binds	Chs2-9MYC (protein, UniProt P14180 1-963) MTRNPFMVEPSNGSPNRRGASNLSKFYANANSNSRWANPSEESLEDSYDQSNVFQGLPASPSRAALRYSPDRRHRTQFYRDSAHNSPVAPNRYAANLQESPKRAGEAVIHLSEGSNLYPRDNADLPVDPYHLSPQQQPSNNLFGSGRLYSQSSKYTMSTTSTTAPSLAEADDEKEKYLTSTTSYDDQSTIFSADTFNETKFELNHPTRQQYVRRANSESKRRMVSDLPPPSKKKALLKLDNPIPKGLLDTLPRRNSPEFTEMRYTACTVEPDDFLREGYTLRFAEMNRECQIAICITMYNEDKYSLARTIHSIMKNVAHLCKREKSHVWGPNGWKKVSVILISDGRAKVNQGSLDYLAALGVYQEDMAKASVNGDPVKAHIFELTTQVSINADLDYVSKDIVPVQLVFCLKEENKKKINSHRWLFNAFCPVLQPTVVTLVDVGTRLNNTAIYRLWKVFDMDSNVAGAAGQIKTMKGKWGLKLFNPLVASQNFEYKISNILDKPLESVFGYISVLPGALSAYRYRALKNHEDGTGPLRSYFLGETQEGRDHDVFTANMYLAEDRILCWELVAKRDAKWVLKYVKEATGETDVPEDVSEFISQRRRWLNGAMFAAIYAQLHFYQIWKTKHSVVRKFFLHVEFLYQFIQMLFSWFSIANFVLTFYYLAGSMNLVIKHGEALFIFFKYLIFCDLASLFIISMGNRPQGAKHLFITSMVILSICATYSLICGFVFAFKSLASGTESHKIFVDIVISLLSTYGLYFFSSLMYLDPWHMFTSSIQYFLTLPAFTCTLQIFAFCNTHDVSWGTKGSTQESKQLSKAIVVQGPDGKQIVETDWPQEVDKKFLEIKSRLKEPEFEESSGNEKQSKNDYYRDIRTRIVMIWMLSNLILIMSIIQVFTPQDTDNGYLIFILWSVAALAAFRVVGSMAFLFMKYLRIIVSYRNKVEGSGSWEVSKLDLPNVFHKKG	–
no binding	binds	Iqg1-6HA (protein, UniProt Q12280 1-1495) MTAYSGSPSKPGNNNSYLNRYVENLGTNVTPPLRPQSSSKINSSLNIASPSHLKTKTSASNSSATILSKKVESSVSKLKPSLPNKLVGKYTVDLSNYSKIELRYYEFLCRVSEVKIWIEAVIEEALPSEIELCVGDSLRNGVFLAKLTQRINPDLTTVIFPAGDKLQFKHTQNINAFFGLVEHVGVPDSFRFELQDLYNKKNIPQVFETLHILISMINKKWPGKTPALTNVSGQISFTKEEIAACKKAWPRIRDFKSLGTNINTAPASPEEPKEKRSGLIKDFNKFERPNIPVEEILITPRKNITDANCSDFSNTPSPYNEAPKMSNLDVVVEKRKFTPIEPSLLGPTPSLEYSPIKNKSLSYYSPTISKYLTYDTEFYTRRSRAREEDLNYYQTFKYSPSHYSPMRRERMTEEQFLEKVVQLQNICRGVNTRFNLYIQKRLLNLFEQDILRFQACLRGNKFRVLSSMYLPIRRAKIDVPHVEAIQSRIKGSRIRYKYDKLKFTLSRFSCTVELLQAYCRSKLLKTTVNTKLNDIEISHYPLTKLQSYMRASYVRKKVMSLNTKLNDERESIMKFSAIIRGNVVRCSEDAILSAVHDVHKENISKLQSLIRGIFTRSCLASIIYSLGKENCNIIQLSACIRGNAVRHKVQSLFAPENNLSETVHDLQGLVRGILVRYTLDLVDDIVEYNNLALFQAFSRGALVRESLDQKSSFYKRNVRSVIMIQSWIRKSLQRSAYLELLDCPNPSLWAVKKFVHLLNGTATIEEVQNQLESCQASLDSENMKKERLLKSIRQQLNINGVLDKFGLLKDKDHELGISDSTIPKSKYQKYEKLFYMLQVDPSYWKLLYLKEPEFVAKNVYMTFGTVNQRMNDRERSYFTRFVCEMLQNAINEAPSIESFLDNRSQFWQTILQDFLRRESPEFFSIIVPVLDYLSDPVVDFESDPYKIYQEIHGFSSPQHCSPVDDASTKNKFIDNLRCLWHAIEMVAEIYTRKVHTIPVEIRYLCTKIFCYAADKNIEEIDSLRAISSILVNVFVSEYLVNREYYGYKDSNVQKNNQKIDILMKSLATVFEIKNFDGFLDPLNQYANEIKPHIKDVLYNVLVDPEYEQEGDRLIYLDMVSPSPKLELLTEKVLEISGKFEEYLNEFPEADILHDILEKNLDNSSFPRSGRVTLELDASAYRFLVSDDKMRKIYDQVKRAFVYMMQIEDVDTNLYDLSISTILPQDEPNFANFLEQNPKIRDDPMIQKLKPLKYFTLKNVTLKKIHELESTGTFCSSDNKLQNFLNDIANTIKNPNYAIDYVTQEIYITKETLTKISEMNHSLDIELSRLKKHVDHTIKDFQKAKDFSPVHKSKFGNFKNAVKKVQGRERSELQGMKFKWNTKQLYERGVLKTIRGEKLAELTVKVFGSSGPKFPDIIFKISTSDGSRFGIQMIDKRKGPDKRYSDDVDSFSFKDLIKTQVEPKIETWKLFHSNVVVNNSQLLHLIVSFFYKRNAL	–
–	–	6His-tagged-Inn1 (natural protein, S. cerevisiae, UniProt P53901 1-409, looked up, Inn1, S. cerevisiae; also called 6His-Inn1; source: E. coli Rosetta, in cell extract) MSEEVWNGNQGILSVYVSKARDLPNLNKLDKQNVMLRLRIAHMTRASNTLHRAGQNPVFHYLEKFDITPEIKPLMYVEVYCDRRKKSPLPIGRCEIDLLNAIRADPKEGYCTWYELKRSGDEFAGTIFIELTFTPKVPRLNRDDLNKEMDRLDSSMAMRPIPPLPTESEYDYVHGSTMRQITPQCVSTSHEDKDEGQPYRNGNVFSMSSKSDTAVLANSNDPIILPPTFSASMGTTSTLETNDTAISNTSNTKFHFANLRKLKEKINIFKNPDSSTNNCQNESNKVDIEALQKAIGVTSLSYDEDDDDDDENDAFYSSSHRVSHNYNQPPLPPIPTRDDMSNYSSSRNTPLVRRDRPSRLDSSSPNSHPHPSGLNSPKLPPLPTTSNSNFNSRKNSMSPTRKRPPPRLS	binding [6]: binds
–	–	Hof1-200-272 (domain or fragment, UniProt Q05080 200-272) KFWIHEWAQLSCELQEMENARISFLQSKLQQFATSSMETYILEQTKMDMLTNHLNSFTAADEISTFSKENGTG	binding [7]: binds
no binding	binds	Hof1 (protein, UniProt Q05080 1-669) MSYSYEACFWDPNDNGVNILLGHISQGIRSCDSMILFFKQRSELEKDYARRLGAITGKLDKDIGTNMDYGKLNETFNVVLSVEKARAQSHSKQSEILFRQIYTDTKAFAANLQARYTTLSGKIERLRMDKFNKKKGCEVLQKKLQDAQIRFRDLQLNENNMIGAKRVEHNKRELLKWESNSQEYKVQLDVLKQEYKASQKFWIHEWAQLSCELQEMENARISFLQSKLQQFATSSMETYILEQTKMDMLTNHLNSFTAADEISTFSKENGTGRLKHKTSKGDMNSSANWAQMSSISTTSKKTESYMDNIRKLSSQLKETENKRKLASIDKYEKPLPSPEVTMATQFRNSTPVIRNETKVVANPTLSLRSSPVQLQSNVDDSVLRQKPDKPRPIVGEEQLKPDEDSKNPDEKGLMVHKRNQSLSSPSESSSSNPTDFSHIKKRQSMESMTTSVSSMANSIDDSQRFAKSWNSSNRKRKSMSHLQVPSSASSRSDDGGRTPNSAHNLNEDDYNTRRDTSTSTILFKPPVAVRGTSRGHTHRQSMIMQDSSNPIEDALYEMERIQSSSKPGTKTGNIMDERGVVRDRGITVTLPIVTSEGFPVIEYAKAMYPLIGNEAPGLANFHKGDYLLITEIVNKDWYKGEVYDNDRIDRNHRIGLIPYNFIQLLHQGL	–
